Measured values: the supplement of paper PMC3334620
The full ranking holds about 33,000 sequences; the median of “E-score (-0.5 to 0.5)” is about -0.016, and the highest 2% start at about 0.32. The list shows a part of the results.

The sequences below were run against T1, Stp1 (UniProt B3LFK1) (assay: PBM E-score (8-mer binding enrichment) (E-score (-0.5 to 0.5)); higher = stronger / more preferred TF binding; most listed sequences are background and not binding sites). Conditions: protein concentration: 200 nM; construct: GST-full length.
T1 sequence: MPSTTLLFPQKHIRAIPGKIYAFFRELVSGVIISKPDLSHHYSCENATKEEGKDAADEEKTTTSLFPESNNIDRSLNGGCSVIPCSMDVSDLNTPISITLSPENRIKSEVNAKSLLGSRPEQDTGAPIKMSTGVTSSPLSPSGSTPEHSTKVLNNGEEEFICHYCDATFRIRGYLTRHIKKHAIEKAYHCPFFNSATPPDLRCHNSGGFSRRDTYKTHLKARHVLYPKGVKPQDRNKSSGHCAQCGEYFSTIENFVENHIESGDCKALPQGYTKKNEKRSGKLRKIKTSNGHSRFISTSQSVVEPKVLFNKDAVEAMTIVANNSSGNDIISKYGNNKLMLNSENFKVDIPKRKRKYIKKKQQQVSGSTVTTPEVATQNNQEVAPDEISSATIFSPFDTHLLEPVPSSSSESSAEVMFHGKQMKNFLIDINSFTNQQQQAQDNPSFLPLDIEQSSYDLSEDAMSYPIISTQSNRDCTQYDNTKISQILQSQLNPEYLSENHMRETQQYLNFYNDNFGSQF
Summary of the method: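 Using PURExpress in vitro transcription/translation, GST-tagged yeast transcription factors were made in full-length or DNA-binding-domain form. These were applied at about 100-200 nM to double-stranded universal all-10-mer Agilent arrays, and bound protein was detected with fluorescent anti-GST. Scans were normalised with masliner before the Universal PBM Analysis Suite assigned E-scores to ungapped eight-base words pooled with their reverse complements.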

In order of falling “PBM E-score” value:
1. ACTGCCGC  0.412
2. CAATGCCG  0.374
3. AAGGGCGC  0.354
4. CAGCACGG  0.333
5. CGCCACAC  0.324
6. CGTTAGTA  0.301
7. GGCACGCA  0.288
8. AGGCGCAA  0.279
9. ATATAAGA  0.26
10. TCGAGCAA  0.231
11. GCTTAAGA  0.227
12. AATTTACT  0.214
13. AAATACGG  0.207
14. AACACGGA  0.199
15. ATAAAACA  0.199
16. CCGCTCGC  0.199
17. TAAATAAA  0.196
18. AATAACAT  0.194
19. AAGATTCG  0.191
20. AACTTCGA  0.186
21. ATAGTGCG  0.175
22. ACGCGGGG  0.174
23. CACAGTAG  0.173
24. ACTTAGAT  0.167
25. GCAGTGAA  0.159
26. AATTTGCC  0.157
27. ACGAGTAG  0.149
28. CAGCAGCA  0.146
29. AACTTATA  0.143
30. CTTTAAAC  0.138
31. GATTAGCC  0.138
32. AAAGCAAG  0.136
33. CCTTTTAC  0.136
34. CGGATGAA  0.134
35. CCATCTTA  0.13
36. AGATAACA  0.13
37. TATGTCGA  0.123
38. AGTAAAAC  0.119
39. CGCATTTA  0.119
40. ATAAGAAC  0.118
41. ACCATTAA  0.112
42. AACTAATG  0.11
43. CAGCTAGA  0.102
44. AGGTATGC  0.0967
45. CAAAATTG  0.0955
46. CTTCCAAA  0.0921
47. AAATAAGA  0.0887
48. CGTTTGCA  0.0874
49. AGGCCAAA  0.0796
50. CAACCTTG  0.0792
51. ATATCCCG  0.077
52. ATTCCTTA  0.0713
53. ACTAAGTA  0.0607
54. CACACATA  0.0548
55. CGTGCATC  0.0537
56. GGACATAC  0.0525
57. CACATGAA  0.0511
58. ATCATATG  0.0474
59. AACAAATG  0.0454
60. AACGGTGT  0.044
61. TATTCTCA  0.0404
62. ATGCAGAC  0.0383
63. CTGTCGAA  0.0374
64. CGGTGGGC  0.0372
65. AAATACGT  0.035
66. TTGCGCAA  0.0333
67. CACTGCTA  0.0298
68. AGAACGTG  0.0266
69. CTGTTACA  0.0257
70. CGTCCGAG  0.0238
71. CTCAGATA  0.0224
72. CTCAAACC  0.0212
73. CTTATTGC  0.0179
74. CAGCGTTA  0.0111
75. CACAATGA  0.0109
76. CTGTGCAA  0.0109
77. ACAGTAAC  0.00178
78. GCAGGCGA  0.0012
79. ATCACCAA  0.00107
80. GATAACGA  0.00088
81. AACCCGGC  -0.00624
82. CATAGAAC  -0.0111
83. ATCAGCGG  -0.0125
84. CCTTAAGC  -0.014
85. CTAAGAAC  -0.0142
86. AAGTATGT  -0.0157
87. TCAGCCGA  -0.0181
88. GTACAGAC  -0.0182
89. AGTGATAA  -0.023
90. ACATCGAC  -0.0237
91. AGACCGCC  -0.0258
92. AACAATCG  -0.026
93. CCCATGAA  -0.0263
94. CCGATACA  -0.0287
95. TCTTCGAA  -0.0288
96. GAAGGCTC  -0.0301
97. CAGGCGCA  -0.031
98. ATCGTAAG  -0.0327
99. CAAGGAAC  -0.0354
100. TCGGAGAA  -0.0369
101. AACCCAGA  -0.0382
102. CTTCGACC  -0.0395
103. ATACCAAT  -0.0455
104. AAGCGCTG  -0.0462
105. ACCCGTTA  -0.0466
106. AATCGGTC  -0.0468
107. CCCGCGAA  -0.0469
108. CAATGCTA  -0.0491
109. GACTGCGC  -0.0492
110. GCAGGACA  -0.0503
111. CCACCGTA  -0.0503
112. CATACTCA  -0.0504
113. CTGACGCA  -0.0553
114. CTCTGCGA  -0.0569
115. GCTCTTCA  -0.0619
116. CGGTCTAC  -0.0644
117. ACCTCGTA  -0.0684
118. TTCCGCAA  -0.0685
119. AGACCTAG  -0.0729
120. AACTAGTG  -0.0733
121. TACGTCAA  -0.0778
122. CCTGAGCG  -0.0794
123. ATGCTGCG  -0.0894
124. TCAGGCAA  -0.0931
125. GTACCCAC  -0.094
126. ATAGGCGA  -0.0945
127. AGCAGTGC  -0.0948
128. TAGGCGGA  -0.096
129. CGACGAGC  -0.0983
130. CCATAGCA  -0.101
131. CATCTACC  -0.11
132. CTCAAGGA  -0.11
133. AATGGCGG  -0.116
134. ATCCCACC  -0.117
135. AGCTAACG  -0.126
136. CCGTGACC  -0.127
137. ACTAGTTG  -0.129
138. TAGGGTCA  -0.132
139. GATAACCA  -0.136
140. AGGCTCTC  -0.137
141. AACGTTTG  -0.142
142. ATCCGAAG  -0.142
143. CAATCCTA  -0.159
144. ACTGGGGC  -0.164
145. CGAGGGAG  -0.172
146. ATGTAGAG  -0.173
147. ATCCATCG  -0.177
148. GAAGATCC  -0.186
149. CCGGCCAC  -0.189
150. CCCTCTGC  -0.196
151. GTGCTCTA  -0.198
152. AGGACATG  -0.199
153. GACTCGCA  -0.204
154. AAGTCTGG  -0.218
155. CCCTCTAG  -0.219
156. CTCGTTAC  -0.23
157. CCTCGCTA  -0.231
158. AGTCGGGA  -0.234
159. CGGACTTA  -0.241
160. AGTCTGCA  -0.258
161. GGCTGACC  -0.271
162. CGGAGCTC  -0.272
163. AAGACCTC  -0.283
164. CCCGGACG  -0.286
165. CCCAGAGG  -0.293
166. CAGTACTC  -0.295
167. AGTCGGGG  -0.299
168. CCCTAGTC  -0.312
169. TAGGGGCA  -0.352
170. ACCCATAG  -0.382
171. CCCCTAGC  -0.385
172. GACAGGTC  -0.394
